Results published in the supplement of paper PMC8728848.
The other results are listed elsewhere or left out.

How the values were obtained:
Test in all cases: glycan array binding signal (z-score within array); higher = stronger binding
Details in all cases: glycan notation: IUPAC condensed, linker removed
[1] = molecular target: Fuc(a1-3)[Gal3S(b1-4)]GlcNAc6S
In short: (§1)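 The binding signal is a Z-score computed within each array. Data were drawn from 3228 arrays in the Consortium for Functional Glycomics database, restricted to those with a known protein sequence. Scores were averaged over arrays of the same protein sequence at different concentrations or buffers, and over linkers, and negative values can be taken as non-binding.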

[2] = molecular target: Fuc(a1-3)[GalNAc(b1-4)]GlcNAc
In short: as §1

[3] = molecular target: Fuc(a1-3)[GalNAc(b1-4)]GlcNAc6S
In short: as §1

[4] = molecular target: Fuc(a1-3)[GalNAc3S(b1-4)]GlcNAc
In short: as §1

Fuc(a1-4)GlcNAc = molecular target: Fuc(a1-4)GlcNAc
In short: as §1

Fuc(b1-3)GlcNAc = molecular target: Fuc(b1-3)GlcNAc
In short: as §1

Gal(a1-2)Gal = molecular target: Gal(a1-2)Gal
In short: as §1

Gal(a1-3)Gal = molecular target: Gal(a1-3)Gal
In short: as §1

Gal(a1-3)Gal(b1-3)GlcNAc = molecular target: Gal(a1-3)Gal(b1-3)GlcNAc
In short: as §1

[5] = molecular target: Gal(a1-3)Gal(b1-3)GlcNAc(b1-2)Man(a1-3)[Gal(a1-3)Gal(b1-3)GlcNAc(b1-2)Man(a1-6)]Man(b1-4)GlcNAc(b1-4)GlcNAc
In short: as §1

[6] = molecular target: Gal(a1-3)Gal(b1-3)GlcNAc(b1-3)GalNAc
In short: as §1

[7] = molecular target: Gal(a1-3)Gal(b1-3)GlcNAc(b1-6)GalNAc
In short: as §1

[8] = molecular target: Gal(a1-3)Gal(b1-3)[Fuc(a1-4)]GlcNAc(b1-2)Man(a1-3)[Gal(a1-3)Gal(b1-3)[Fuc(a1-4)]GlcNAc(b1-2)Man(a1-6)]Man(b1-4)GlcNAc(b1-4)GlcNAc
In short: as §1

Gal(a1-3)Gal(b1-4)Glc = molecular target: Gal(a1-3)Gal(b1-4)Glc
In short: as §1

Gal(a1-3)Gal(b1-4)GlcNAc = molecular target: Gal(a1-3)Gal(b1-4)GlcNAc
In short: as §1

[9] = molecular target: Gal(a1-3)Gal(b1-4)GlcNAc(b1-3)GalNAc
In short: as §1

[10] = molecular target: Gal(a1-3)Gal(b1-4)GlcNAc(b1-6)GalNAc
In short: as §1

[11] = molecular target: Gal(a1-3)Gal(b1-4)[Fuc(a1-3)]GlcNAc
In short: as §1

[12] = molecular target: Gal(a1-3)Gal(b1-4)[Fuc(a1-3)]GlcNAc(b1-2)Man(a1-3)[Gal(a1-3)Gal(b1-4)[Fuc(a1-3)]GlcNAc(b1-2)Man(a1-6)]Man(b1-4)GlcNAc(b1-4)GlcNAc
In short: as §1

Gal(a1-3)GalNAc = molecular target: Gal(a1-3)GalNAc
In short: as §1

[13] = molecular target: Gal(a1-3)[Gal(a1-4)]Gal(b1-4)GlcNAc
In short: as §1

[14] = molecular target: Gal(a1-4)Gal(b1-3)GlcNAc(b1-2)Man(a1-3)[Gal(a1-4)Gal(b1-3)GlcNAc(b1-2)Man(a1-6)]Man(b1-4)GlcNAc(b1-4)GlcNAc
In short: as §1

Gal(a1-4)Gal(b1-4)Glc = molecular target: Gal(a1-4)Gal(b1-4)Glc
In short: as §1

Gal(a1-4)Gal(b1-4)GlcNAc = molecular target: Gal(a1-4)Gal(b1-4)GlcNAc
In short: as §1

[15] = molecular target: Gal(a1-4)Gal(b1-4)GlcNAc(b1-2)Man(a1-3)[Gal(a1-4)Gal(b1-4)GlcNAc(b1-2)Man(a1-6)]Man(b1-4)GlcNAc(b1-4)GlcNAc
In short: as §1

[16] = molecular target: Gal(a1-4)Gal(b1-4)GlcNAc(b1-3)Gal(b1-4)Glc
In short: as §1

Gal(a1-4)GlcNAc = molecular target: Gal(a1-4)GlcNAc
In short: as §1

Gal(a1-6)Glc = molecular target: Gal(a1-6)Glc
In short: as §1

Gal(b1-2)Gal = molecular target: Gal(b1-2)Gal
In short: as §1

Gal(b1-3)Gal = molecular target: Gal(b1-3)Gal
In short: as §1

Gal(b1-3)Gal(b1-4)GlcNAc = molecular target: Gal(b1-3)Gal(b1-4)GlcNAc
In short: as §1

[17] = molecular target: Gal(b1-3)Gal(b1-4)GlcNAc(b1-2)Man(a1-3)[Gal(b1-3)Gal(b1-4)GlcNAc(b1-2)Man(a1-6)]Man(b1-4)GlcNAc(b1-4)GlcNAc
In short: as §1

Gal(b1-3)GalNAc = molecular target: Gal(b1-3)GalNAc
In short: as §1

[18] = molecular target: Gal(b1-3)GalNAc(a1-3)[Fuc(a1-2)]Gal(b1-4)Glc
In short: as §1

[19] = molecular target: Gal(b1-3)GalNAc(a1-3)[Fuc(a1-2)]Gal(b1-4)GlcNAc
In short: as §1

[20] = molecular target: Gal(b1-3)GalNAc(b1-3)Gal(a1-4)Gal(b1-4)Glc
In short: as §1

[21] = molecular target: Gal(b1-3)GalNAc(b1-4)Gal(b1-4)Glc
In short: as §1

[22] = molecular target: Gal(b1-3)GalNAc(b1-4)[Neu5Ac(a2-3)]Gal(b1-4)Glc
In short: as §1

B1: RVL (Remusatia vivipara), B5LYJ9 (protein)
chain: MAKLLLFLLPAILGLLVPRSAVALGTNYLLSGQTLDTEGHLKNGDFDLVMQDDCNLVLYNGNWQSNTANNGRDCKLTLTDYGELVIKNGDGSTVWKSGAQSVKGNYAAVVHPDGRLVVLGPSVFKIDPWVRGLNSLRFRNIPFTNNLLFSGQVLYGDGRLTAKNHQLVMQGDCNLVLYGGKYGWQSNTHGNGEHCFLRLNHKGELIIKDDDFKTIWSSRSSSKQGEYVLILQDDGFGVIYGPAIFETSSKRSIAAS
[1]
  glycan array binding signal (z-score): -0.041
[2]
  glycan array binding signal (z-score): -0.292
[3]
  glycan array binding signal (z-score): -0.315
[4]
  glycan array binding signal (z-score): -0.412
Fuc(a1-4)GlcNAc
  glycan array binding signal (z-score): -0.261
Fuc(b1-3)GlcNAc
  glycan array binding signal (z-score): -0.192
Gal(a1-2)Gal
  glycan array binding signal (z-score): -0.182
Gal(a1-3)Gal
  glycan array binding signal (z-score): -0.259
Gal(a1-3)Gal(b1-3)GlcNAc
  glycan array binding signal (z-score): -0.241
[5]
  glycan array binding signal (z-score): 0.313
[6]
  glycan array binding signal (z-score): -0.166
[7]
  glycan array binding signal (z-score): -0.359
[8]
  glycan array binding signal (z-score): -0.039
Gal(a1-3)Gal(b1-4)Glc
  glycan array binding signal (z-score): -0.23
Gal(a1-3)Gal(b1-4)GlcNAc
  glycan array binding signal (z-score): -0.206
[9]
  glycan array binding signal (z-score): -0.178
[10]
  glycan array binding signal (z-score): -0.158
[11]
  glycan array binding signal (z-score): -0.093
[12]
  glycan array binding signal (z-score): 0.663
Gal(a1-3)GalNAc
  glycan array binding signal (z-score): -0.058
[13]
  glycan array binding signal (z-score): -0.341
[14]
  glycan array binding signal (z-score): 1.75
Gal(a1-4)Gal(b1-4)Glc
  glycan array binding signal (z-score): -0.214
Gal(a1-4)Gal(b1-4)GlcNAc
  glycan array binding signal (z-score): -0.159
[15]
  glycan array binding signal (z-score): 1.93
[16]
  glycan array binding signal (z-score): -0.111
Gal(a1-4)GlcNAc
  glycan array binding signal (z-score): -0.322
Gal(a1-6)Glc
  glycan array binding signal (z-score): -0.039
Gal(b1-2)Gal
  glycan array binding signal (z-score): -0.166
Gal(b1-3)Gal
  glycan array binding signal (z-score): -0.264
Gal(b1-3)Gal(b1-4)GlcNAc
  glycan array binding signal (z-score): -0.124
[17]
  glycan array binding signal (z-score): 0.377
Gal(b1-3)GalNAc
  glycan array binding signal (z-score): -0.206
[18]
  glycan array binding signal (z-score): -0.181
[19]
  glycan array binding signal (z-score): -0.307
[20]
  glycan array binding signal (z-score): -0.01
[21]
  glycan array binding signal (z-score): -0.076
[22]
  glycan array binding signal (z-score): -0.201
